{"source": "patent EP1366764A1", "about": "“Method of screening for calcium receptor-active molecules” (The Brigham & Women's Hospital, Inc., priority 1993, dated 1994)", "tested_on": "bovine parathyroid cells", "test": "Measurement of cytosolic Ca2+ ([Ca2+]i, fura-2): mobilization of intracellular Ca2+ in bovine parathyroid cells", "format": "cell-based", "conditions": "for effect on basal [Ca^2+]i or increases in [Ca^2+]i evoked by extracellular Ca^2+: tested at 1 µM; for EC50: read-out: EC50 for the mobilization of intracellular Ca^2+, bovine parathyroid cells, fura-2, 0.5 mM extracellular Ca2+, \"inactive\" = no change in [Ca2+]i at 1 mM or 1-5 mM (footnote); for potentiation of the mobilization of intracellular Ca^2+ elicited by extracellular divalent cations / change in [Ca^2+]i: 100 µM; for change in [Ca^2+]i: low extracellular Ca2+ (0.5 mM); for effect on [Ca^2+]i (cytosolic Ca^2+ transients): tested at 500 µM", "note": "Entries after “also recorded” stand apart in the source; their conditions may differ. Read-outs that look alike come from different tables or passages of the source."}
{"smiles": "CC1=C(C(=O)OC(C)C)C(c2cccc3nonc23)C([N+](=O)[O-])=C(C)N1", "note": "(single isomer, unassigned; (-)) [(-) 202-791]", "values": [{"measurement": "effect on basal [Ca^2+]i or increases in [Ca^2+]i evoked by extracellular Ca^2+", "result": "None"}]}
{"smiles": "NCCCCCCCCCCCCN", "note": "[1,12-diaminododecane (DADD), 1,12-diaminododecane]", "values": [{"measurement": "EC50", "setting": "Bos taurus", "result": 3000, "unit": "µM"}]}
{"smiles": "NC(=O)C[C@H](NC(=O)Cc1ccc(O)cc1O)C(=O)NCCCCCNCCCNCCCNC(=O)[C@@H](N)CCCN=C(N)N", "note": "[Argiotoxin-636]", "values": [{"measurement": "increases in [Ca^2+]i", "setting": "400 µM", "result": "did not elicit increases in [Ca^2+]i"}, {"measurement": "effect on [Ca^2+]i", "setting": "tested at similar concentrations (100 to 300 µM)", "result": "without effect"}]}
{"smiles": "NC(=O)C[C@H](NC(=O)Cc1c[nH]c2cccc(O)c12)C(=O)NCCCCCNCCCNCCCNC(=O)[C@@H](N)CCCN=C(N)N", "note": "[Argiotoxin-659]", "values": [{"measurement": "EC50", "result": 300, "unit": "µM"}]}
{"smiles": "COC(=O)C1=C(C)NC(C)=C([N+](=O)[O-])C1c1ccccc1C(F)(F)F", "note": "(centres unmarked) [BAY K 8644]", "values": [{"measurement": "effect on basal [Ca^2+]i or increases in [Ca^2+]i evoked by extracellular Ca^2+", "result": "None"}]}
{"smiles": "COc1ccc(CCN(C)CCCC(C#N)(c2cc(OC)c(OC)c(OC)c2)C(C)C)cc1OC", "note": "[D-600]", "values": [{"measurement": "potentiation of the mobilization of intracellular Ca^2+ elicited by extracellular divalent cations", "result": "potentiated the mobilization of intracellular Ca^2+"}, {"measurement": "change in [Ca^2+]i", "result": "evoked no change in [Ca^2+]i"}]}
{"smiles": "CCCC(=O)N[C@@H](Cc1ccc(O)cc1)C(=O)NCCCCNCCCNCCCN", "note": "[Philanthotoxin-433]", "values": [{"measurement": "effect on [Ca^2+]i (cytosolic Ca^2+ transients)", "result": "without effect"}]}
{"smiles": "CCN(CC)CCCCCCCCOC(=O)c1cc(OC)c(OC)c(OC)c1", "note": "[TMB-8]", "values": [{"measurement": "potentiation of the mobilization of intracellular Ca^2+ elicited by extracellular divalent cations", "result": "potentiated the mobilization of intracellular Ca^2+; also recorded: potentiated transient increases in [Ca^2+]i"}, {"measurement": "change in [Ca^2+]i", "result": "evoked no change in [Ca^2+]i"}]}
{"smiles": "NC[C@H]1O[C@H](O[C@H]2[C@H](O)[C@@H](O[C@H]3O[C@H](CO)[C@@H](O)[C@H](N)[C@H]3O)[C@H](N)C[C@@H]2N)[C@H](N)[C@@H](O)[C@@H]1O", "note": "[bekanamycin]", "values": [{"measurement": "EC50", "setting": "Bos taurus", "result": 200, "unit": "µM"}]}
{"smiles": "NCCCCCN", "note": "[cadaverine]", "values": [{"measurement": "mobilization of intracellular Ca^2+", "setting": "tested at 2mM", "result": "inactive"}]}
{"smiles": "COc1ccc([C@@H]2Sc3ccccc3N(CCN(C)C)C(=O)[C@@H]2OC(C)=O)cc1", "note": "[diltiazem]", "values": [{"measurement": "potentiation of the mobilization of intracellular Ca^2+ elicited by extracellular divalent cations", "result": "effective"}]}
{"smiles": "C1CNCCNCCNCCNCCNCCN1", "note": "[hexacyclen, 1,4,7,10,13,16-hexaaza-cyclooctadecane]", "values": [{"measurement": "potency relative to NPS 383", "result": 7, "unit": "fold"}, {"measurement": "EC50", "setting": "Bos taurus", "result": 20, "unit": "µM"}, {"measurement": "potency relative to pentaethylenehexamine", "setting": "cyclic analog versus straight chain", "result": 25, "unit": "fold"}]}
{"smiles": "CCC[C@@H]1C[C@@H](C(=O)N[C@@H]([C@H]2O[C@H](SC)[C@H](O)[C@@H](O)[C@H]2O)[C@@H](C)O)N(C)C1", "note": "[lincomycin]", "values": [{"measurement": "effect on [Ca^2+]i (cytosolic Ca^2+ transients)", "result": "without effect"}]}
{"smiles": "NCCCCNCCCN", "note": "[spermidine]", "values": [{"measurement": "EC50", "setting": "Bos taurus", "result": 2000, "unit": "µM"}]}
{"smiles": "[H]/N=C(/N)N[C@H]1[C@H](O)[C@@H](O)[C@H](O[C@@H]2O[C@@H](C)[C@](O)(C=O)[C@H]2O[C@@H]2O[C@@H](CO)[C@H](O)[C@@H](O)[C@@H]2NC)[C@@H](N/C(N)=N\\[H])[C@@H]1O", "note": "[streptomycin]", "values": [{"measurement": "EC50", "setting": "Bos taurus", "result": 600, "unit": "µM"}]}
